From a collection of fitness landscapes (doi:10.1016/j.celrep.2020.107928)
The full ranking holds about 81,000 sequences; the median of “one-hybrid fitness for binding parS DNA” is about -0.17, and the highest 2% start at about 0.51. The list shows a part of the results.

B1: Caulobacter ParB omega fusion; a variant is named by its letters at X, in order, B8GW30 (parent)
chain: MESVVVGEPGMSEGRRGLGRGLSALLGEVDAAPAQAPGEQLGGSREAPIEILQRNPDQPRRTFREEDLEDLSNSIREKGVLQPILVRPSPDTAGEYQIVAGERAWRAAQRAGLKTVPIMVRELDDLAVLEIGIIENVQRADLNVLEEALSYKVLMEKFERTQENIAQTIGKSXSHVANXMRLLXLPDEVQSYLVSGELTAXHARAIAAAADPVALAKQIIEGGLSVRETEALARKAPNLSAGKSKGGRPPRVKDTDTQALESDLSSVLGLDVSIDHRGSTGTLTITYATLEQLDDLCNRLTRGI

Variants of: B1
Assay: one-hybrid fitness for binding parS DNA (scaled: cognate 1, non-cognate 0); higher = stronger binding
Conditions: with parS DNA site
Procedure, shortened: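 The reporter was HIS3, with the binding site 19 bp from the promoter, in E. coli USO used for bacterial one-hybrid selection of Caulobacter ParB libraries with four specificity codons randomised. Growth was on M9 lacking histidine, with 0.1 mM IPTG and 5 mM 3-AT, for 48 hours at 37°C. Illumina sequencing covered plasmids before and after selection; three replicate libraries were pooled and variants with under 10 reads dropped. A fitness score is the log change in variant-to-wild-type read ratio, rescaled to the cognate and non-cognate references.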

Variant | one-hybrid fitness for binding parS DNA
QYSY | ≤ 0.2
APTE | ≤ 0.2
WAHT | ≤ 0.2
ARKT | ≤ 0.2
KRRI | ≤ 0.2
YITM | ≤ 0.2
PPTQ | ≤ 0.2
CPAW | ≤ 0.2
GPKW | ≤ 0.2
RYMM | 0.287
QGEW | ≤ 0.2
RSSR | ≤ 0.2
SRVD | ≤ 0.2
LNDR | ≤ 0.2
WTVV | ≤ 0.2
QHST | ≤ 0.2
LKAS | ≤ 0.2
MKNS | ≤ 0.2
STGR | ≤ 0.2
DPQL | ≤ 0.2
SMSM | ≤ 0.2
QINN | ≤ 0.2
FTTP | ≤ 0.2
EQMS | ≤ 0.2

Variant | one-hybrid fitness for binding parS DNA
WPMR | ≤ 0.2
QRSA | ≤ 0.2
CSRN | ≤ 0.2
YPRG | ≤ 0.2
YAIT | ≤ 0.2
TELI | ≤ 0.2
ETQK | ≤ 0.2
RHVK | ≤ 0.2
ESNT | ≤ 0.2
QGLA | ≤ 0.2
NQQF | ≤ 0.2
RRQN | 0.614
IERV | ≤ 0.2
PNPG | ≤ 0.2
CERG | ≤ 0.2
RATP | ≤ 0.2
TKNN | ≤ 0.2
QYCQ | ≤ 0.2
AWLC | ≤ 0.2
FLDC | ≤ 0.2
CPRL | ≤ 0.2
VGFI | ≤ 0.2
YTFV | ≤ 0.2
PYYG | ≤ 0.2

Variant | one-hybrid fitness for binding parS DNA
GEGR | ≤ 0.2
HITV | ≤ 0.2
PTVH | ≤ 0.2
CFYC | ≤ 0.2
NMKT | ≤ 0.2
DNPS | ≤ 0.2
LSNE | ≤ 0.2
PNDR | ≤ 0.2
HHFC | ≤ 0.2
RAFC | 0.925
MGNR | ≤ 0.2
RGGG | 0.64
KRDH | ≤ 0.2
ANLQ | ≤ 0.2
QIYS | ≤ 0.2
TEAC | ≤ 0.2
RCYD | ≤ 0.2
SQDS | ≤ 0.2
LVMQ | ≤ 0.2
LHGV | ≤ 0.2
PDFW | ≤ 0.2
SMGG | ≤ 0.2
LCPV | ≤ 0.2
VSFY | ≤ 0.2

Variant | one-hybrid fitness for binding parS DNA
CRWT | ≤ 0.2
LAVA | ≤ 0.2
FNPY | ≤ 0.2
AMVE | ≤ 0.2
TDRV | ≤ 0.2
AWYC | ≤ 0.2
RVLK | ≤ 0.2
CIGG | ≤ 0.2
VNIS | ≤ 0.2
TYTC | ≤ 0.2
VLPR | ≤ 0.2
HESD | ≤ 0.2
QQRW | ≤ 0.2
FCTA | ≤ 0.2
IFKS | ≤ 0.2
WSAE | ≤ 0.2
DCGV | ≤ 0.2
RDAM | ≤ 0.2
EAWA | ≤ 0.2
VPTQ | ≤ 0.2
CETG | ≤ 0.2
HEGS | ≤ 0.2
QAHH | ≤ 0.2
GNST | ≤ 0.2

Variant | one-hybrid fitness for binding parS DNA
DVRN | ≤ 0.2
LNDL | ≤ 0.2
MSCS | ≤ 0.2
WAKR | ≤ 0.2
LNGY | ≤ 0.2
WRQP | ≤ 0.2
WCKS | ≤ 0.2
IPTC | ≤ 0.2
CRLV | ≤ 0.2
DIEC | ≤ 0.2
FMLS | ≤ 0.2
LKTQ | ≤ 0.2
RPRI | ≤ 0.2
EYER | ≤ 0.2
WNNT | 0.234
WWLW | ≤ 0.2
GWTG | ≤ 0.2
LGCA | ≤ 0.2
RVEH | ≤ 0.2
EFTG | ≤ 0.2
YKSN | ≤ 0.2
GLQM | ≤ 0.2
CCQV | ≤ 0.2
DTCR | ≤ 0.2

Variant | one-hybrid fitness for binding parS DNA
HRVV | ≤ 0.2
SPTH | ≤ 0.2
SDYL | ≤ 0.2
CFVL | ≤ 0.2
SGTA | ≤ 0.2
PVCV | ≤ 0.2
WYNT | ≤ 0.2
HVPV | ≤ 0.2
CKAP | ≤ 0.2
RIGN | 0.477
TYTS | ≤ 0.2
METY | ≤ 0.2
AYDG | ≤ 0.2
QSHI | ≤ 0.2
AETP | ≤ 0.2
WSTC | ≤ 0.2
HGVE | ≤ 0.2
PGMR | ≤ 0.2
HDVR | ≤ 0.2
SVET | ≤ 0.2
VRAV | ≤ 0.2
LAID | ≤ 0.2
NGLY | ≤ 0.2
WLWS | ≤ 0.2

Variant | one-hybrid fitness for binding parS DNA
PHMW | ≤ 0.2
PKPS | ≤ 0.2
NKDL | ≤ 0.2
CRTE | ≤ 0.2
QAQL | ≤ 0.2
FYPR | ≤ 0.2
YLAM | ≤ 0.2
YQES | ≤ 0.2
FRAK | ≤ 0.2
YFVC | ≤ 0.2
YPSR | ≤ 0.2
CLFI | ≤ 0.2
RIED | ≤ 0.2
KSRN | ≤ 0.2
FAIC | ≤ 0.2
VMML | ≤ 0.2
WIRG | ≤ 0.2
ARGT | ≤ 0.2
PIMF | ≤ 0.2
GARG | ≤ 0.2
NTAS | ≤ 0.2
QYCL | ≤ 0.2
FAYD | ≤ 0.2
LHRG | ≤ 0.2

Variant | one-hybrid fitness for binding parS DNA
LFAV | ≤ 0.2
SWKT | ≤ 0.2
NVRL | ≤ 0.2
QCPE | ≤ 0.2
HSSV | ≤ 0.2
SLGC | ≤ 0.2
GIHS | ≤ 0.2
YADW | 0.201
HMGR | ≤ 0.2
LGKC | ≤ 0.2
NRTC | ≤ 0.2
HVLA | ≤ 0.2
PMLS | ≤ 0.2
AVVE | ≤ 0.2
ELRM | ≤ 0.2
PFDR | ≤ 0.2
APRN | ≤ 0.2
EGMG | ≤ 0.2
STWD | ≤ 0.2
ARQF | ≤ 0.2
WKKT | ≤ 0.2
GGAM | ≤ 0.2
SGNC | ≤ 0.2
KHPL | ≤ 0.2

Variant | one-hybrid fitness for binding parS DNA
RCCN | 0.369
DCPR | ≤ 0.2
INLR | ≤ 0.2
INDG | ≤ 0.2
CINS | ≤ 0.2
VVMY | ≤ 0.2
AQAH | ≤ 0.2
IAKI | ≤ 0.2
ERLG | ≤ 0.2
DLYR | ≤ 0.2
HKKY | ≤ 0.2
QKAM | ≤ 0.2
VICA | ≤ 0.2
ETWT | ≤ 0.2
SSAN | ≤ 0.2
RHCK | ≤ 0.2
DPLG | ≤ 0.2
HGRI | ≤ 0.2
AVLM | ≤ 0.2
VKYG | ≤ 0.2
KCAR | ≤ 0.2
QMRP | ≤ 0.2
LVMD | ≤ 0.2
TRSA | ≤ 0.2

Variant | one-hybrid fitness for binding parS DNA
MQQR | ≤ 0.2
NRNL | ≤ 0.2
MRYR | ≤ 0.2
YSSV | ≤ 0.2
MSYS | ≤ 0.2
STVF | ≤ 0.2
AWRP | ≤ 0.2
QDWT | ≤ 0.2
LKQS | ≤ 0.2
LWCR | ≤ 0.2
VCMG | ≤ 0.2
SQVS | ≤ 0.2
SRRG | ≤ 0.2
IMTR | ≤ 0.2
DRGS | ≤ 0.2
DLNG | ≤ 0.2
RYFL | ≤ 0.2
MNSA | ≤ 0.2
GIME | ≤ 0.2
SIYC | ≤ 0.2
SQRG | ≤ 0.2
GSTY | ≤ 0.2
RCQT | 0.936
FFTG | ≤ 0.2

Variant | one-hybrid fitness for binding parS DNA
PKQS | ≤ 0.2
DCQG | ≤ 0.2
MRKM | ≤ 0.2
RCCF | 0.314
QADT | ≤ 0.2
LYLS | ≤ 0.2
KLYH | ≤ 0.2
DESA | ≤ 0.2
KKAT | ≤ 0.2
ACAN | ≤ 0.2
INVL | ≤ 0.2
PRFS | ≤ 0.2
CCDC | ≤ 0.2
ICLM | ≤ 0.2
MCCT | ≤ 0.2
GTQL | ≤ 0.2
YTPK | ≤ 0.2
RDLK | ≤ 0.2
KDMR | ≤ 0.2
PVHF | ≤ 0.2
TNEM | ≤ 0.2
AQRC | ≤ 0.2
IRHG | ≤ 0.2
GRCE | ≤ 0.2

Variant | one-hybrid fitness for binding parS DNA
LRRQ | ≤ 0.2
HVIT | ≤ 0.2
FTVT | ≤ 0.2
GFKT | ≤ 0.2
VVVV | ≤ 0.2
HVPM | ≤ 0.2
QMPL | ≤ 0.2
ACHG | ≤ 0.2
TAYN | ≤ 0.2
WRYT | ≤ 0.2
QIDT | ≤ 0.2
NNMS | ≤ 0.2
WAGT | ≤ 0.2
RTEL | ≤ 0.2
RYFQ | ≤ 0.2
LNTV | ≤ 0.2
GHYN | ≤ 0.2
IPAR | ≤ 0.2
LMDC | ≤ 0.2
AETD | ≤ 0.2
DNIV | ≤ 0.2
YKSL | ≤ 0.2
PKIS | ≤ 0.2
RVGV | ≤ 0.2

Variant | one-hybrid fitness for binding parS DNA
YTCT | ≤ 0.2
WITG | ≤ 0.2
PCSY | ≤ 0.2
LTPE | ≤ 0.2
YNYG | ≤ 0.2
RARD | ≤ 0.2
QSDS | ≤ 0.2
ENQP | ≤ 0.2
AAYQ | ≤ 0.2
QSKP | ≤ 0.2
PAVW | ≤ 0.2
KFKR | ≤ 0.2
ELLM | ≤ 0.2
KDYA | ≤ 0.2
SKMT | ≤ 0.2
CVPN | ≤ 0.2
PQIS | ≤ 0.2
FNDG | ≤ 0.2
